{
  "source": "PubChem BioAssay (Tox21)",
  "key": {"[1]": {"test": "qHTS RealTime-Glo MT Cell Viability Assay in HEK293 cells - 24 hour (AID 1224886); also: nearly all actives have a fitted effect of over 50% in size", "procedure,_shortened": "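Reads taken at 0, 8, 16, 24, 32 and 40 h from the same wells. HEK293 cells (600/well) carried RealTime-Glo reagents from seeding, with compound added after a 5 h settle at 37 C.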"}, "[2]": {"test": "qHTS RealTime-Glo MT Cell Viability Assay in HepG2 cells - 16 hour (AID 1224885); also: nearly all actives have a fitted effect of over 50% in size", "procedure,_shortened": "(§1)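 HepG2 suspension premixed with RealTime-Glo reagents is plated at 600 cells per well and left 5 h at 37 C/5% CO2. Compounds in DMSO then go in, and bioluminescence reflecting viable cell number is recorded over 40 h.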"}, "[3]": {"test": "qHTS assay to identify small molecule antagonists of the sonic hedgehog signaling (Shh) pathway (AID 1259369; calls by dose curve)", "procedure,_shortened": "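Screening used 3T3Gli1-Luc cells at 2,000 per well, compounds delivered in DMSO, and conditioned medium as agonist stimulus; plates incubated 24hr at 37 C and 5% CO2 before a 30min luciferase step.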"}, "[4]": {"test": "qHTS assay to identify small molecule antagonists of the sonic hedgehog signaling (Shh) pathway - cell viability counter screen (AID 1259367)", "procedure,_shortened": "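NIH/3T3-derived Gli1-Luc reporter cells (2,000 per well) rested 4 hr at 37 C, then received DMSO compounds plus conditioned medium. After 23 hr of treatment, CellTiter-Fluor was added for 1 hr at 37C and fluorescence read.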"}, "[5]": {"test": "qHTS RealTime-Glo MT Cell Viability Assay in HEK293 cells - 8 hour (AID 1224887)", "procedure,_shortened": "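qHTS format; HEK293 cells with NanoLuc/prosubstrate reagent, 37 C/5% CO2 for 5 h pre-dosing; compounds 23 nL in DMSO; luminescence at each time point reflects viable cells.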"}, "[6]": {"test": "qHTS RealTime-Glo MT Cell Viability Assay in HepG2 cells - 0 hour (AID 1224889)", "procedure,_shortened": "as §1"}, "[7]": {"test": "A CellTox Green Cytotoxicity Assay to monitor cytotoxicity in HepG2 cells - 8 hour (AID 1224890)", "procedure,_shortened": "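Continuous culture of HepG2 cells with a membrane-impermeant DNA dye; rising fluorescence marks dead cells. Compound exposure lasted up to 40 h at 37 C, with reads every 8 h from 0 h.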"}, "[8]": {"target": "Estrogen receptor (Homo sapiens) (UniProt P03372)", "sequence (P03372 whole entry, looked up)": "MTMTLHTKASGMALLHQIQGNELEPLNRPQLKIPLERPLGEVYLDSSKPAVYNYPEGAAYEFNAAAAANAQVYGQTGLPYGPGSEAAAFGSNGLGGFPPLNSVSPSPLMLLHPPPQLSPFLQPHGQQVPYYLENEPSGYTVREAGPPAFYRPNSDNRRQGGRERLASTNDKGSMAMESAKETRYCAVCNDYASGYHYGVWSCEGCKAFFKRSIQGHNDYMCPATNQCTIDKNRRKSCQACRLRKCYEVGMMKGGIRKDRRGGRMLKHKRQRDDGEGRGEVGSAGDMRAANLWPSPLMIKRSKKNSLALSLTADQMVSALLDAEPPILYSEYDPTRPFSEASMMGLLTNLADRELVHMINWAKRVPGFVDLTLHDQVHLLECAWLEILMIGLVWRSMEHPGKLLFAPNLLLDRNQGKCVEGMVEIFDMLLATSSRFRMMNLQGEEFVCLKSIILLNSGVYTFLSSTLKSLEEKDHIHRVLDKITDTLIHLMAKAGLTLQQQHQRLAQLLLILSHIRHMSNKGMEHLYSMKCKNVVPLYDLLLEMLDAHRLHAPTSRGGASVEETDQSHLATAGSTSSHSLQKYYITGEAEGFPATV", "test": "qHTS assay to identify small molecule antagonists of the estrogen receptor alpha (ER-alpha) signaling pathway using the BG1 cell line in the presence of 0.1 nM 17-beta-estradiol (AID 1259244)", "procedure,_shortened": "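Quantitative high-throughput screen in VM7Luc4E2 cells: compound plus 0.1 nM E2 (final), 22 h, 37C, 5% CO2; ONE-Glo added, 30 min room temperature, luminescence measured.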"}, "[9]": {"test": "qHTS assay to identify small molecule HDAC inhibitors - cell viability counter screen (AID 1259365)", "procedure,_shortened": "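Viability readout: CellTiter-Glo luminescence. Wild-type HCT-116 cells, 2hr compound treatment following overnight attachment at 37 C.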"}, "[10]": {"test": "qHTS assay to identify small molecule agonists of the sonic hedgehog signaling (Shh) pathway - cell viability counter screen (AID 1259366)", "procedure,_shortened": "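Viability measured fluorometrically (CellTiter-Fluor, 1hr, 37C) in 3T3 Gli1-Luc reporter cells after 23hr compound exposure within a 24hr incubation at 37C/5% CO2.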"}},
  "note": "Inconclusive results, whose numbers are uncertain, are shown with a selection of clear calls. For some assays here: No potency is given beside an inconclusive call; the fits are too rough. Active and inactive are the calls of the source. Unless noted, calls follow the shape of the dose curve; as a rule, active = well fitted curve in the direction sought with a large enough effect in the repeat runs; inconclusive = weak or mixed curves; inactive = no such curve, though single readings can be large; an effect the other way counts as inactive or inconclusive. Potency is read from the fitted curve at half-maximal effect; tags tell the direction and shape of the fitted curve.",
  "data": [
    {"smiles": "CC(CCl)OP(=O)(OC(C)CCl)OC(C)CCl", "note": "(stereo not drawn)", "values": [
      {"measurement": "Potency", "setting": "[1]", "value": "inconclusive [cytotoxic, partial curve]"}
    ]},
    {"smiles": "CCCCCc1ccco1", "values": [
      {"measurement": "Potency", "setting": "[2]", "value": "inactive"},
      {"measurement": "Potency", "setting": "[3]", "value": "inconclusive [inhibitor]"}
    ]},
    {"smiles": "Cc1ccc(C)c(C)c1", "values": [
      {"measurement": "Potency", "setting": "[2]", "value": "inactive"},
      {"measurement": "Potency", "setting": "[4]", "value": "inactive"},
      {"measurement": "Potency", "setting": "[3]", "value": "inactive"}
    ]},
    {"smiles": "Cc1ccc2nc(N)[nH]c(=O)c2c1Sc1ccncc1", "values": [
      {"measurement": "Potency", "setting": "[2]", "value": "inconclusive [cytotoxic, partial curve]"},
      {"measurement": "Potency", "setting": "[3]", "value": "inconclusive [inhibitor, partial curve, poor fit]"}
    ]},
    {"smiles": "CCN(CC)c1ccc2c(-c3ccccc3C(=O)O)c3ccc(=[N+](CC)CC)cc-3oc2c1", "values": [
      {"measurement": "Potency", "setting": "[2]", "value": "inconclusive [cytotoxic, partial curve]"},
      {"measurement": "Potency", "setting": "[5]", "value": "inconclusive [cytotoxic, partial curve]"},
      {"measurement": "Potency", "setting": "[6]", "value": "inconclusive [cytotoxic, partial curve, poor fit]"},
      {"measurement": "Potency", "setting": "[7]", "value": "active: 24.5 µM"},
      {"measurement": "Potency", "setting": "[8]", "value": "inconclusive [inhibitor, partial curve]"},
      {"measurement": "Potency", "setting": "[9]", "value": "inconclusive [cytotoxic, partial curve]"},
      {"measurement": "Potency", "setting": "[10]", "value": "active: 4.33 µM"}
    ]},
    {"smiles": "CCOC(=O)c1ccc(C2CCC(NC[C@H](O)COc3ccc(O)c(NS(C)(=O)=O)c3)CC2)cc1", "note": "(stereo partly drawn)", "values": [
      {"measurement": "Potency", "setting": "[2]", "value": "inconclusive [cytotoxic, partial curve]"},
      {"measurement": "Potency", "setting": "[6]", "value": "inconclusive [cytotoxic, partial curve, poor fit]"},
      {"measurement": "Potency", "setting": "[10]", "value": "inconclusive [cytotoxic, partial curve]"},
      {"measurement": "Potency", "setting": "[4]", "value": "active: 50.2 µM"}
    ]},
    {"smiles": "O=C(Oc1ccccc1)Oc1ccccc1", "values": [
      {"measurement": "Potency", "setting": "[2]", "value": "inconclusive [cytotoxic, single point]"},
      {"measurement": "Potency", "setting": "[6]", "value": "inactive"},
      {"measurement": "Potency", "setting": "[8]", "value": "inactive"},
      {"measurement": "Potency", "setting": "[4]", "value": "inconclusive [cytotoxic, partial curve, poor fit]"}
    ]}
  ]
}
